# Results reported in the supplement of paper PMC12217912.
# The other results are listed elsewhere or left out. The full chains were built here from the parent and the listed change. Inactive controls read about 0.05.
# B1: TEV protease; numbered along this chain (parent)
# chain: MGESLFKGPRDYNPISSSICHLTNESDGHTTSLYGIGFGPFIITNKHLFRRNNGTLVVQSLHGVFKVKDTTTLQQHLVDGRDMIIIRMPKDFPPFPQKLKFREPQREERICLVTTNFQTKSMSSMVSDTSCTFPSGDGIFWKHWIQTKDGQCGSPLVSTRDGFIVGIHSASNFTNTNNYFTSVPKNFMELLTNQEAQQWVSGWRLNADSVLWGGHKVFMVKPEEPFQPVKEATQL
# Variants of: B1
# Assay: raw area under fraction-flipped curve 0-4 h after induction (AUC4h, not background-subtracted), DNA-recorder readout of cleavage of the substrate (dimensionless); higher = more cleavage of the substrate by the protease variant
# Details: temperature: 34 °C; time window: 0-4 h after rhamnose induction
# 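Note: Bxb1 expression induced with 0.2% (w/v) L-rhamnose at OD600 near 0.5, cultures sampled hourly, flipped fraction per protease–substrate barcode pair counted by paired-end Illumina sequencing.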
Variant,area with substrate ENLDFQS,area with substrate ENLEFQS,area with substrate ENLFFQS,area with substrate ENLKFQS,area with substrate ENLNFQS,area with substrate ENLPFQS,area with substrate ENLRFQS,area with substrate ENLWFQS,area with substrate ENLIFQS,area with substrate ENLLFQS
R109N,0.0607,0.0609,0.092,0.0573,0.0738,0.0654,0.0831,0.0732,–,–
C111E,0.0495,0.0696,–,–,0.0673,0.0657,–,–,0.0885,–
V113E,0.0703,–,0.0584,0.0839,–,–,0.0583,–,–,0.0495
T115H,0.0654,0.0637,–,–,0.0688,0.0633,–,–,0.097,0.074
N116I,0.0666,–,–,0.0737,–,–,0.0742,–,–,0.0836
F117T,0.0619,–,–,0.0707,–,–,0.0778,–,–,–
F117Y,0.0604,0.054,0.083,0.0741,–,0.0692,–,–,–,0.0649
S121N,0.0427,0.0687,0.0794,0.0823,–,0.0614,0.0786,0.0723,0.0738,0.0705
T129A,0.0729,0.0708,0.0998,0.0573,–,–,–,–,0.0758,–
T129R,0.0774,–,0.0958,0.07,–,–,0.0776,0.0977,0.0928,–
S130T,0.064,–,0.0947,0.0851,–,0.0691,–,–,0.0999,–
H143S,0.0537,–,0.085,0.0609,0.0615,0.0535,0.0705,0.0625,0.0728,–
H143Y,0.0649,0.0777,0.117,0.0983,0.0516,0.0533,0.0856,0.065,0.096,–
G150S,0.0592,0.0568,0.0597,0.069,0.0625,0.054,0.0668,0.05,0.0662,0.0432
G153D,0.0787,–,0.0513,–,0.0612,0.0646,0.0612,0.0401,–,–
S154E,0.0599,–,–,–,0.0466,0.0634,0.0749,0.0487,0.0632,–
V157C,0.0476,0.0586,0.0772,0.0807,0.0627,0.0572,0.076,–,–,0.0866
V157T,0.0584,–,0.0724,0.0671,–,–,0.0773,–,0.076,–
S158C,0.0604,0.0815,0.0671,–,0.0571,0.0554,–,0.0649,0.0751,0.0623
F163G,0.0577,–,–,0.0981,–,0.0988,0.0708,–,–,–

Variant,area with substrate ENLDFQS,area with substrate ENLEFQS,area with substrate ENLFFQS,area with substrate ENLKFQS,area with substrate ENLNFQS,area with substrate ENLPFQS,area with substrate ENLRFQS,area with substrate ENLWFQS,area with substrate ENLIFQS,area with substrate ENLLFQS
G166Y,0.0663,–,0.0487,0.0538,0.0343,0.0472,0.0418,–,–,–
A170D,0.0662,–,–,0.0569,0.0593,–,–,–,–,–
A170L,0.0332,–,–,0.0789,–,–,–,–,–,0.107
S171R,0.0688,–,0.0601,0.0726,0.0315,0.0552,0.0717,–,–,–
N172D,0.0578,–,0.0703,0.0574,0.0691,0.0715,0.0653,0.0594,–,–
F173P,0.0648,–,–,0.0631,0.0674,0.0608,–,–,–,0.0535
F173V,0.0642,0.0775,0.0715,0.0714,0.0601,–,0.0519,–,–,0.0534
N177R,0.0637,–,0.0938,0.09,–,0.0607,–,0.0853,–,–
N177W,0.0611,0.0704,0.0662,0.0716,0.062,0.0631,0.0647,0.0339,–,0.0573
Y179H,0.073,0.0721,0.0628,–,0.055,–,–,0.0564,–,0.0522
K185D,0.0729,–,0.0688,–,0.0696,0.0563,–,0.0922,–,–
F187S,0.056,0.0523,0.0498,0.067,–,–,0.0679,0.0515,0.0742,–
E189Q,0.062,0.0597,–,–,–,0.0652,0.0886,–,–,–
L190K,0.0857,0.0718,0.0754,0.075,0.0654,0.0326,0.0757,0.0515,0.0689,0.061
Q194D,0.0683,–,0.0772,–,–,0.0431,0.0911,–,0.116,–
E195Q,0.0442,0.064,–,0.0829,0.0653,–,0.0699,–,–,–
A196C,0.0613,–,–,–,–,–,0.0713,–,–,–
W199K,0.0594,0.0636,0.0735,–,0.0668,–,0.0515,–,–,0.0639
W203T,0.0667,0.0647,0.0652,0.0523,0.0665,0.0671,0.0655,–,–,0.0565

# Same assay, conditions: temperature: 34 °C; time window: 0-4 h after rhamnose induction
Variant,area with substrate ENLHFQS,area with substrate ENLSFQS,area with substrate ENLVFQS,area with substrate ENLMFQS,area with substrate ENLGFQS,area with substrate ENLQFQS,area with substrate ENLTFQS
T115H,0.0585,0.0663,0.0824,–,–,–,–
N116I,0.0644,–,–,0.0991,–,–,–
F117T,–,–,–,–,0.0742,–,–
F117Y,–,0.04,–,0.0734,–,0.0792,–
S121N,0.0611,0.0526,–,–,–,–,–
T129A,0.0536,–,0.081,–,0.0695,0.054,–
T129R,–,0.0507,–,0.078,–,0.07,–
S130T,0.0689,–,–,–,–,–,–
H143S,–,–,–,0.0706,0.0517,–,0.0631
H143Y,–,0.0613,0.105,–,–,–,–
G150S,0.0518,0.0573,0.0489,–,0.0647,0.0508,–
G153D,0.0519,0.0498,0.0593,–,0.0357,–,0.0396
S154E,0.054,0.0417,–,–,0.06,–,–
V157C,0.0641,0.0415,0.0581,–,–,–,–
S158C,0.0679,0.0599,–,–,–,–,–
G166Y,–,0.0535,–,–,0.0608,–,–

Variant,area with substrate ENLHFQS,area with substrate ENLSFQS,area with substrate ENLVFQS,area with substrate ENLMFQS,area with substrate ENLGFQS,area with substrate ENLQFQS,area with substrate ENLTFQS
S171R,0.0768,–,0.115,0.108,–,–,–
N172D,–,–,–,0.0802,–,0.0613,–
F173P,–,0.0444,–,–,–,–,–
F173V,0.0678,0.0562,–,0.0565,–,–,–
N177R,–,–,–,–,–,0.102,0.0687
N177W,0.0618,0.0555,0.0518,0.0735,–,–,–
Y179H,–,0.0658,–,–,0.0613,0.0587,0.0752
K185D,0.0664,0.0628,–,0.0711,0.0696,–,–
F187S,0.0466,–,0.0502,0.0632,–,0.0644,–
E189Q,0.0749,–,–,0.0837,0.0717,0.0809,–
L190K,–,–,0.0749,0.0808,0.0626,0.0436,–
Q194D,–,0.0575,0.0733,0.0389,–,0.0801,–
E195Q,0.0652,–,–,–,–,0.112,–
A196C,0.0643,–,–,–,–,–,–
W199K,–,0.0526,–,0.0597,–,–,–
W203T,–,0.0483,–,–,0.0713,–,–
